One test has as its system HSkMC. As to the kind of experiment: cytotoxicity call (relative viability < 0.9). Conditions: 10 µM.
A further test has as its system HepG2. As to the kind of experiment: cytotoxicity call (relative viability < 0.9). Particulars: 10 µM.
Another test relates to S. aureus RN4220. As to the kind of experiment: growth inhibition call (relative growth <= 0.2). Particulars: 50 µM.

Molecules are shown by their SMILES. This is one part of the list.

As for `CN(C)C(=O)C[C@@H]1C=C[C@H](NC(=O)C2CCOCC2)[C@H](CO)O1`, the cytotoxicity call in the test with HSkMC and in the test with HepG2 was “inactive” in each case. Besides, the growth inhibition call in the test on S. aureus RN4220 is “inactive”.

Regarding `Cc1noc(C)c1NC(=O)N(C)C[C@@H]1Oc2c(NC(=O)C3CCOCC3)cccc2C(=O)N([C@@H](C)CO)C[C@@H]1C`, the cytotoxicity call in the test with HSkMC and in the test on HepG2 was “inactive” in each case. Besides, the growth inhibition call in the test on S. aureus RN4220 was “inactive”.

Regarding `COc1cccc(NC(=O)N(C)C[C@@H]2Oc3ncc(C#Cc4cccnc4)cc3C(=O)N([C@H](C)CO)C[C@@H]2C)c1`, the cytotoxicity call in the test with HSkMC and with HepG2 was “inactive” each time. Further, the growth inhibition call in the test on S. aureus RN4220 was “inactive”.

For `C[C@@H]1CN([C@@H](C)CO)C(=O)c2cc(NC(=O)Cc3ccccc3)ccc2O[C@@H](C)CCCCO[C@@H]1CN(C)C(=O)Cc1ccccc1`, the cytotoxicity call with HSkMC and in the test with HepG2 was “inactive” each time. The growth inhibition call in the test with S. aureus RN4220 is “inactive”.

Take `C[C@H]1CN([C@@H](C)CO)C(=O)c2ccccc2-c2ccccc2CO[C@H]1CN(C)C(=O)c1cc(Cl)cc(Cl)c1`: the cytotoxicity call in the test on HSkMC and in the test on HepG2 was “inactive” throughout. Moreover, in the test on S. aureus RN4220, the growth inhibition call was “inactive”.

For the compound `Cc1[nH]c2ncnn2c(=O)c1NS(C)(=O)=O`, the cytotoxicity call in the test on HSkMC and with HepG2 was “inactive” in each case. Moreover, in the test on S. aureus RN4220, the growth inhibition call was “inactive”.

`Cl.Clc1ccc2nsnc2c1NC1=NCCN1`: the cytotoxicity call in the test with HSkMC and in the test on HepG2 was “inactive” each time. Also, the growth inhibition call in the test on S. aureus RN4220 is “inactive”.

For the compound `O=C([C@H]1[C@H](CO)[C@H]2Cn3c(cccc3=O)[C@@H]1N2CC1CCCC1)N1CCOCC1`, the cytotoxicity call in the test on HSkMC and in the test with HepG2 was “inactive” each time. The growth inhibition call in the test with S. aureus RN4220 is “inactive”.

Regarding `COCC(=O)N1C[C@H](C)[C@@H](OC)CN(C)C(=O)c2ccc(NC(=O)c3ccc(OC)cc3)cc2OC[C@@H]1C`, the cytotoxicity call in the test with HSkMC and with HepG2 was “inactive” each time. Moreover, the growth inhibition call in the test with S. aureus RN4220 was “inactive”.

Consider `C[C@H](CO)N1C[C@H](C)[C@@H](CN(C)Cc2ccc(-c3ccccc3)cc2)Oc2ccc(NC(=O)CCC(F)(F)F)cc2CC1=O`, for which the cytotoxicity call in the test with HSkMC and in the test on HepG2 was “inactive” throughout. The growth inhibition call with S. aureus RN4220 is “inactive”.

For the compound `CC(C)NC(=O)Nc1cccc2c1O[C@@H](CN(C)S(=O)(=O)c1ccccc1)[C@H](C)CN([C@H](C)CO)C2=O`, the cytotoxicity call in the test with HSkMC and with HepG2 was “inactive” throughout. Besides, in the test with S. aureus RN4220, the growth inhibition call is “inactive”.

Turning to `Cc1noc(C)c1S(=O)(=O)Nc1ccc2c(c1)CC(=O)N([C@H](C)CO)C[C@H](C)[C@@H](CN(C)S(=O)(=O)c1ccc(F)cc1)O2`, the cytotoxicity call in the test on HSkMC and in the test with HepG2 was “inactive” each time. Also, the growth inhibition call with S. aureus RN4220 is “inactive”.

As for `O=C(C[C@H]1CC[C@H]2[C@@H](COC[C@@H](O)CN2C(=O)C2CC2)O1)NCc1ccncc1`, the cytotoxicity call with HSkMC and in the test with HepG2 was “inactive” in each case. Besides, the growth inhibition call with S. aureus RN4220 was “inactive”.

Turning to `COc1ccc(CN(C)C[C@H]2OCCCC[C@@H](C)Oc3ccc(NS(=O)(=O)c4ccccc4)cc3C(=O)N([C@@H](C)CO)C[C@@H]2C)cc1`, the cytotoxicity call in the test with HSkMC and in the test on HepG2 was “inactive” throughout. In addition, the growth inhibition call in the test with S. aureus RN4220 was “inactive”.

Take `Cc1cc(C(=O)Nc2cccc3c2O[C@H](CN(C)Cc2ccccc2)[C@@H](C)CN([C@H](C)CO)C3=O)n(C)n1`: the cytotoxicity call in the test on HSkMC and with HepG2 was “inactive” throughout. In addition, the growth inhibition call in the test with S. aureus RN4220 is “inactive”.

Turning to `Cc1noc(C)c1NC(=O)N(C)C[C@H]1OCCCC[C@H](C)Oc2ccc(NC(=O)c3ccccc3)cc2C(=O)N([C@H](C)CO)C[C@@H]1C`, the cytotoxicity call in the test with HSkMC and in the test on HepG2 was “inactive” each time. Moreover, the growth inhibition call in the test with S. aureus RN4220 is “inactive”.

Take `C[C@H]1CN([C@@H](C)CO)C(=O)c2cc(NC(=O)C3CC3)ccc2O[C@H]1CN(C)Cc1ccc(-c2ccccc2)cc1`: the cytotoxicity call in the test on HSkMC and with HepG2 was “inactive” in each case. Also, in the test with S. aureus RN4220, the growth inhibition call was “inactive”.

With `Nc1nc(NC2CC2)c2ncn(C3C=CC(CO)C3)c2n1.O=S(=O)(O)O` (configuration not stated), the cytotoxicity call in the test on HSkMC and with HepG2 was “inactive” each time. The growth inhibition call with S. aureus RN4220 is “inactive”.

Take `C/C=C/c1ccc2c(c1)O[C@@H](CN(C)C(=O)c1ccc3c(c1)OCO3)[C@@H](C)CN([C@@H](C)CO)S2(=O)=O`: the cytotoxicity call in the test on HSkMC and with HepG2 was “inactive” throughout. In the test with S. aureus RN4220, the growth inhibition call was “inactive”.

On to `COCC(=O)N(C)C[C@@H]1Oc2cc(-c3ccc(OC)cc3)ccc2S(=O)(=O)N([C@@H](C)CO)C[C@@H]1C`, for which the cytotoxicity call with HSkMC and in the test with HepG2 was “inactive” in each case. For the same compound, in the test on S. aureus RN4220, the growth inhibition call is “inactive”.

For the compound `CN1CC(O)C2=CC(=NNC(N)=O)C(=O)C=C21` (configuration not stated), the cytotoxicity call in the test on HSkMC and in the test with HepG2 was “inactive” in each case. The growth inhibition call with S. aureus RN4220 is “inactive”.

On to `Cc1noc(C)c1NC(=O)Nc1cccc2c1O[C@H](CN(C)Cc1ccc(C(=O)Nc3ccccc3N)cc1)[C@@H](C)CN([C@H](C)CO)C2=O`, for which the cytotoxicity call in the test on HSkMC and in the test with HepG2 was “inactive” throughout. For the same compound, in the test with S. aureus RN4220, the growth inhibition call was “inactive”.

Take `NC(CSCSCC(N)C(=O)O)C(=O)O` (configuration not stated): the cytotoxicity call with HSkMC and with HepG2 was “inactive” in each case. In addition, in the test on S. aureus RN4220, the growth inhibition call was “inactive”.

`O=C(C[C@H]1CC[C@H]2[C@@H](COC[C@@H](O)CN2S(=O)(=O)c2ccccc2)O1)N1CCc2ccccc2C1`: the cytotoxicity call in the test with HSkMC and in the test with HepG2 was “inactive” each time. For the same compound, the growth inhibition call in the test with S. aureus RN4220 is “inactive”.

As to `CC(C)(C)[S@@+]([O-])N1Cc2cc(C(=O)NCc3ccc4c(c3)OCO4)nc(-c3ccc(-c4ccc(C#N)cc4)cc3)c2[C@H]1CCO`, the cytotoxicity call in the test on HSkMC (human skeletal muscle cells) and in the test on HepG2 was “inactive” throughout. Also, the growth inhibition call in the test on S. aureus RN4220 was “inactive”.

As to `C[C@@H]1CCCCO[C@@H](CN(C)C(=O)Nc2ccc(C(F)(F)F)cc2)[C@H](C)CN([C@H](C)CO)C(=O)c2cc(NS(=O)(=O)c3ccc(Cl)cc3)ccc2O1`, in the test with HSkMC, the cytotoxicity call is “active”. In addition, the cytotoxicity call with HepG2 was “inactive”. In addition, the growth inhibition call in the test with S. aureus RN4220 is “inactive”.

Take `C[C@@H]1CN([C@H](C)CO)C(=O)c2cc(NC(=O)C3CCCCC3)ccc2O[C@H]1CN(C)Cc1ccc(Cl)c(Cl)c1`: the cytotoxicity call with HSkMC and in the test on HepG2 was “inactive” throughout. Besides, in the test on S. aureus RN4220, the growth inhibition call is “inactive”.

As for `C[C@@H]1CN([C@@H](C)CO)C(=O)c2cc(NC(=O)Nc3ccc(F)cc3)ccc2O[C@@H]1CN(C)S(C)(=O)=O`, the cytotoxicity call with HSkMC and with HepG2 was “inactive” each time. In addition, the growth inhibition call in the test with S. aureus RN4220 is “inactive”.

For the compound `Cc1noc(C)c1NC(=O)N(C)C[C@H]1Oc2ccc(NC(=O)NC(C)C)cc2CC(=O)N([C@@H](C)CO)C[C@H]1C`, the cytotoxicity call in the test with HSkMC and in the test with HepG2 was “inactive” each time. The growth inhibition call in the test on S. aureus RN4220 is “inactive”.

Source of the values: the antibiotic and cytotoxicity screens of Wong et al. (2023).
